# Experimental data from the supplement of paper PMC11417369.
# ± gives the standard deviation of the averaged measurements. The list shows a part of the results.
# Test system: PfAP2-EXP AP2 domain (GST-tagged)
# Experiment: gcPBM binding intensity (ln(normalized median fluorescence intensity)); higher = stronger DNA binding
# Method in brief: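 After 1 h on an Agilent 4 × 180k array of primer-extended double-stranded 36-bp intergenic genomic probes and negative controls, bound GST-tagged P. falciparum DNA-binding domains were detected with Alexa488 anti-GST antibody and scanned at 488 nm. The domains had been expressed in E. coli, and binding took place in 1× PBS with 1% milk, 0.2 mg/ml BSA, 0.5% salmon testes DNA and 0.03% Triton X-100. Binding intensity is the highest Masliner-normalised natural-log median intensity across replicate spots of either probe orientation.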
row,Sequence,gcPBM binding intensity (ln)
1,TATTTATATAGGTATACACACATACAAATATGTAAA [CACACA_site7705],8.24 ± 0.38
2,ATAAGAAGGAACATAAATATATCATAAAAAAAAAAA [GTGCAC_negctrl_site169],8.56 ± 0.35
3,TAAAATTTTTTATTCACACAAATATAGTTATATATA [CACACA_site5348],8.12 ± 0.42
4,AAATTAATATAAATATGTACATAAATAATAAAATAT [XGTACX_site6131],8.71 ± 0.5
5,AAGGAATAAAGAAGTTGTACATAATTTGTATCATCC [XGTACX_site3891],8.62 ± 0.36
6,GTTTTCCTTCCCTTTCCCCCTCAAAAAAAGGGAACA [TGCATGCA_negctrl_site436],9.55 ± 0.33
7,GGAGGTTGTTATAAAAGTACAAAAAGTTGCAATTTT [XGTACX_site7351],8.77 ± 0.43
8,ATTTTTCAAACTTTAGTGCAATGAAAGAAAGAAAAA,8.7 ± 0.18
9,ATTTAATACATACATTCACACACACTAATTGTATAT [CACACA_site9361],8.74 ± 0.45
10,AAAAAAAAAAAAACTTGTACATGTGATATTATCTAT [XGTACX_site6169],8.65 ± 0.55
11,TTAAATGTTCTATATACATGCAATGATATGTTTCTG [TGCATGCA_site317],8.55 ± 0.28
12,TCAAAGTAGGCTTATATGCACACTTTGAAATATTAT [CACACA_site1920],8.32 ± 0.23
13,ATATATACATATGGGTGTACATATGCACATATATAT [XGTACX_site8437],8.61 ± 0.19
14,TTTAAAATAAATATTACACACAAAATATTAAAAAGC [CACACA_site2129],8.77 ± 0.36
15,ACAAAAAAAAACGTGGTGCATTAATAATATTGTATA [GTGCAC_site9469],8.79 ± 0.28
16,TAGTTAATATGAAAAAGTACACGTTTCAGTGAAAGT [XGTACX_site7402],8.76 ± 0.33
17,AAAAAAAAAAAAAAAAAAAAAAAAAAATATATATAT [CACACA_negctrl_site271],9.795 ± 0.049
18,TGCTACTTATAAATAGAACACACATAAGTGTATTTG [CACACA_site9253],8.21 ± 0.3
19,AAGAAAAAAAAAAAAAAAAAAAAAAAAAAGGAAAAA [GTGCAC_negctrl_site174],8.05 ± 0.56
20,ATACTTCAATCTATTTGTACATATTTTTTAAAACCA [XGTACX_site2328],8.93 ± 0.51
21,GAAATTTTTAAATACAGTACACACATGGGTTTAAAT [XGTACX_site6124],8.8 ± 0.35
22,ATAAAGCCATACAATACACACATTTGACATGTCCGT [CACACA_site7523],8.99 ± 0.58

row,Sequence,gcPBM binding intensity (ln)
1,AATAATAAAAAATATACACACATATATAAATAAATA [CACACA_site6164],8.59 ± 0.38
2,TATATATATATATATTGTACTAATTGTGCAAATGAG [XGTACX_site682],10.1 ± 0.25
3,TAAGAAAAAAAATAATGTACATATGTATTTGAGAAA [XGTACX_site3569],8.69 ± 0.33
4,TATATTTAGTAAAAAGGTACCATTCTTATTTATATT [CACACA_negctrl_site1165],8.31 ± 0.35
5,TACTGTGATAGCACCACACACGCAAAAGTGAGTATA [CACACA_site1109],8.64 ± 0.35
6,TATATTAATAGACACACACACATATTTATATTTATA [CACACA_site6859],8.46 ± 0.4
7,TTTCAGCCAAACGATAAACTACGACACTTGAACGAA [CACACA_negctrl_site1747],8.54 ± 0.4
8,AATAATAGAAAAAGGTGTACTTATAAACATATACAC [XGTACX_site6921],8.61 ± 0.28
9,ATATATATATATATATGTACATATTATATATGAACG [XGTACX_site1585],10.1 ± 0.37
10,ATATATTTTTTTTCTTCACACACATGAATTATATAT [CACACA_site9053],8.94 ± 0.4
11,GTAATTATTATTAATAGTACACACTATGGCATTTCA [XGTACX_site5192],8.37 ± 0.36
12,ATTTAATTTATAAAAACACACACAGGTAAAAAGGTG [CACACA_site8306],9.14 ± 0.45
13,AAGAAAAAATAAACATGTACATAAATATATATATAT [XGTACX_site304],9.98 ± 0.18
14,ATTTTTTTTTTTATGTGTACATATATTTTTTTAATT [XGTACX_site7921],8.77 ± 0.46
15,CATACTGTGATAGCACCACACACGCAAAAGAGGGTA [CACACA_site8285],8.81 ± 0.35
16,TAAGGCCCTTTTCATCGTACAGTAAAATATAAATAA [XGTACX_site1278],8.52 ± 0.42
17,AATTTAACCCATTTTATAATTATTACCACTATATAT [TGCATGCA_negctrl_site452],8.79 ± 0.28
18,GAAAATTCTTAAGGCACACACATATATAATATATAC [CACACA_site569],8.6 ± 0.28
19,CAAATACATGTGTAAAGTACATATTAATAAGTCTTT [XGTACX_site6342],8.54 ± 0.45
20,TGTTGTAAATATGTTTGTACATAAATATATTATTTA [XGTACX_site5442],8.38 ± 0.35
21,TTTTTTATTGTGATACGTATATTATTTTTTGATAAA [CACACA_negctrl_site1],8.79 ± 0.4
22,TATATTTACATTGTAACACACATGAAATATATATAT [CACACA_site61],9.105 ± 0.007

row,Sequence,gcPBM binding intensity (ln)
1,AAAAAAAAATAATATTGTACACACATAAATTCTTTG [XGTACX_site4315],8.33 ± 0.37
2,TTAATTAATAGACACACACACATATAAATATAGATT [CACACA_site7143],8.65 ± 0.47
3,GTGTATTTTCTGCGCACACACATGCAAAAAGAAATA [CACACA_site1148],9.08 ± 0.071
4,GTTTTATTAAAAATGTGTACTTAATTATGAAAAAAA [XGTACX_site4689],8.33 ± 0.16
5,AAGAAAAAATATAATAATAATAAAATATATATAATA [TGCATGCA_negctrl_site475],8.22 ± 0.43
6,TTTGTTTTTCATAGTGCACACATAACCAAAAATAGT [CACACA_site9030],9.065 ± 0.035
7,TATTGTTTTGATTGATGTACATGTTTAAAATATATA [XGTACX_site8430],8.56 ± 0.33
8,AAAGTAAATTTAAGCACACACAACGAACTTTTATAC [CACACA_site7008],8.87 ± 0.45
9,TAATCTATTTATATGTGTACCTATTTAGAAATGACA [XGTACX_site5709],8.51 ± 0.42
10,ATATCACATTCCACGGTACACACTAAAAGAAAAATC [CACACA_site3611],8.76 ± 0.49
11,AGTTTTATGTAGTGTTGTACTTTATACAAATATATT [XGTACX_site614],8.84 ± 0.42
12,GCGGGTTTATCTTTCGCACACCTTACATTTTAGAAT [CACACA_site2015],8.66 ± 0.16
13,ATAAATCAAAGGCACACACACAAAAAAAAAAAAAAA [CACACA_site160],8.12 ± 0.59
14,TGTTTTTTATATTACTGTACATGTTTTGGAATAATA [XGTACX_site4716],8.8 ± 0.36
15,GTATCATTAAATTATTGTACATATATATATATATAT [XGTACX_site8809],10.1 ± 0.57
16,TATTCCTTCTACAATTAAATAATTATAATAAATATA [GTGCAC_negctrl_site26],8.46 ± 0.46
17,AACAAAAATAGAAACACACATACATTGGTTTTCTTT [CACACA_site2534],8.47 ± 0.57
18,TATTTTTGTATATATTTATTCTTATTTTACAGGAAA [TGCATGCA_negctrl_site472],8.54 ± 0.42
19,ACATTTAAGTTTAGCTGTACATATTCATCATAATTA [XGTACX_site37],8.71 ± 0.48
20,TATACATATATATATATATATAGATATATTCACGTG [XGTACX_negctrl_site265],8.445 ± 0.064
21,AAAAAAAACAGACACACACACATAAATATAAATAAA [CACACA_site6214],8.68 ± 0.47
22,TTTTTAAAAAGTAACACACACTCTTATATATAATGA [CACACA_site3618],8.46 ± 0.26

row,Sequence,gcPBM binding intensity (ln)
1,AAAATAATAATAAATGCATGTGTTGTTTACTAAGAA [TGCATGCA_site528],8.88 ± 0.3
2,TGAACATACATCAAAAGTACAAACTCGCATGTTATA [XGTACX_site3320],8.66 ± 0.31
3,CTCCATATTAGACACACACACAAATGAAAAAAATAT [CACACA_site7420],8.78 ± 0.55
4,TAAAATTAAACAAAAAAAAAGAAAAAAAAAAAAAAG [CACACA_negctrl_site1098],8.16 ± 0.42
5,TTTTTATATTTATATAAATAAAAAAATAACAAAATG [XGTACX_negctrl_site231],8.64 ± 0.42
6,TACCTATACAGACACACACACACACGCCCACAAAAA [CACACA_site6375],8.77 ± 0.35
7,CCGCCATTGTACCATCCACACACATATATATATGTA [CACACA_site8866],9.15 ± 0.54
8,TTTTGGTATACGTAATTATATAATATGTTAATCAAT [CACACA_negctrl_site645],8.52 ± 0.44
9,AATGTAGACACATATGTACACACATATATATGTATA [CACACA_site9014],8.57 ± 0.37
10,AATATTCTATATGATACATGCATGATGGAATAAAAA [TGCATGCA_site980],9.16 ± 0.35
11,ATTATATATATATTATGTACATATATTGAAGTGGAT [XGTACX_site5916],8.97 ± 0.49
12,TACGAAATCATATGTACACACACATATATATATATA [CACACA_site5216],10.1 ± 0.39
13,ACGGATTAAAAAATGTGTACGCACAAAAAAAAAAAT [XGTACX_site8259],8.66 ± 0.16
14,ATATATATATATATATGTACTTAATGTTATTATATA [XGTACX_site4508],9.98 ± 0.45
15,TGTTCAGTATTGCACACACACAACAAAATAAAAAAA [CACACA_site6314],8.62 ± 0.38
16,GAAATGTGATAATATACACACACGCATATATATATA [CACACA_site4332],9.86 ± 0.3
17,TGAAAATATATAACGCGTACAAAAAGGAAATACAAT [XGTACX_site3534],9.1 ± 0.57
18,AAATAGTTGTTAAAGGTGCACAATATGGATATAAGA,9.88 ± 0.52
19,TTTTTTTTTTTTTTTGCATGTTGAAAATAAAATTAT [TGCATGCA_site86],8.2 ± 0.46
20,ATTTATTTTAAATAAGTGCAAAATGGTTATAAATAA,8.86 ± 0.33
21,ATGTACTATAGGCACACACACTCACATATATATATA [CACACA_site5745],9.96 ± 0.22
22,ATAAATATTTTGTAAGCATGCTTTTAAAAAAAGAAA [TGCATGCA_site572],8.63 ± 0.51
